Experimental data from PubChem BioAssay AID1508642 (National Center for Advancing Translational Sciences (NCATS), 2021).
In all, about 43,000 compounds went through this assay and about 200 (0.47%) were called active. Inconclusive results (about 12%) are left out. The call rests on the fitted dose curve; in most records, active means well fitted cell-killing curve with a large enough effect; inconclusive means small, poorly fitted or top-dose-only effect, or effect the other way; inactive means flat fitted curve, though single readings scatter. The list shows a part of the results.

experiment: Cell viability qHTS assay in S16 Pmp22-F2sN cells; details: S16 Pmp22-F2sN Schwann cells viability, CellTiter-Glo, 24 h; series mostly up to 57.5 µM; activity change, negative = cytotoxicity: at the top concentration; further: nearly all actives have a fitted effect of over 65% in size
Procedure, shortened: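 Used to flag compounds lowering reporter output through toxicity, this quantitative HTS measures ATP-based CellTiter-Glo luminescence in S16 Pmp22-F2sN Schwann cells after 24 h compound exposure at 37C.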
On the % scale 0 is the no-effect control and ±100 the full control effect.

| Compound | activity change, negative = cytotoxicity |
| --- | --- |
| CC(C)Sc1ncc(Cl)c(C(=O)Nc2nc3ccc(S(C)(=O)=O)cc3s2)n1 | inactive: 6.37% |
| Cc1cc(-c2ccc(S(=O)(=O)Nc3cccc(C(F)(F)F)c3)s2)on1 | inactive: -10.6% |
| O=C(c1ccccc1Cl)N1CCCC(c2nc3c(nnn3Cc3ccc(F)cc3F)c(=O)[nH]2)C1 (stereo unspecified) | inactive: -27% |
| CC(=O)Nc1ccccc1OCc1cc(=O)n2c(C)csc2n1 | inactive: -0.378% |
| CCOC(=O)c1cc(S(=O)(=O)NCc2ccc(F)cc2)[nH]n1 | inactive: 5.44% |
| Cc1ccc(-c2nc(C)c(CCNC(=O)C(=O)Nc3ccc(C)c(Cl)c3)s2)cc1 | inactive: 9.71% |
| COc1cccc(-c2nn(C)c3sc(C(=O)NCc4ccc(C)cc4)cc23)c1 | inactive: -1.52% |
| CC(=O)N1c2ccc(S(=O)(=O)NCc3ccc(Cl)cc3)cc2CC1C (stereo unspecified) | inactive: -18.6% |
| CCC(CC)C(=O)Nc1cccc(-c2nc3ncccn3c2C)c1 | inactive: -2.88% |
| CCc1ccc(CNC(=O)Cn2nc(C)c3c(C)n(-c4ccc(C)cc4)nc3c2=O)cc1 | inactive: 5.99% |
| Cc1cc(=O)n2nc(N3CCC(C(=O)NCc4ccccc4F)CC3)sc2n1 | inactive: 16.1% |
| Cc1ccc(NC(=O)CSc2ncc3c(n2)-c2ccccc2N(C)S3(=O)=O)c(Cl)c1 | inactive: 15.4% |
| COc1ccc(CN(C)c2ccc(-c3nc(C)no3)cc2[N+](=O)[O-])cc1 | inactive: -15.4% |
| CCCC12CN3CC(C)(CN(C1)C3c1cn(CC)c3ccccc13)C2=O (stereo unspecified) | inactive: 7.2% |
| CN(C)c1ccc(CNC(=O)Cn2c(=O)oc3cc(S(=O)(=O)NCc4ccccc4)ccc32)cc1 | inactive: -20.5% |
| COc1ccc(CNC(=O)c2ccc(CS(=O)(=O)c3ccc(OC)cc3)o2)cc1 | inactive: -0.409% |
| Cc1nn(CCC(=O)N2CCN(c3ccccc3F)CC2)c(C)c1S(=O)(=O)N1CCCC1 | inactive: -0.535% |
| COCCCNC(=O)CSc1nc(-c2ccc(OC)cc2)[nH]c1-c1ccc(OC)cc1 | inactive: -17.3% |
| COc1ccc2oc(=O)cc(CN3CCN(c4ccccc4OC)CC3)c2c1 | inactive: 14.2% |
| CCOC(=O)c1c(C)[nH]c(CCC(=O)Nc2ccccc2OCC)c1C | inactive: -0.977% |
| O=C(NCc1ccccc1Cl)c1ccc2nc(Cc3ccccc3)oc2c1 | inactive: -16.1% |
| CCC(=O)N1c2ccccc2CC1C(=O)NCCN1CCN(c2cccc(Cl)c2)CC1 (stereo unspecified) | inactive: -15.8% |
| CC(=O)N1CCCc2cc(S(=O)(=O)N3CCC(C(=O)NCc4ccccc4Cl)CC3)ccc21 | inactive: 3.16% |
| COc1cc(NC(=O)Cn2nc(Cc3cccnc3)c3ccccc3c2=O)cc(OC)c1OC | inactive: 9.95% |
| CCCCN(CCCC)S(=O)(=O)c1ccc(C(=O)Nc2sc3c(c2C(N)=O)CCN(CC)C3)cc1 | inactive: -24.1% |
| Cc1cccc(OCC(=O)Nc2c(C(=O)N3CCN(c4ccccc4)CC3)oc3ccccc23)c1 | inactive: 8.1% |
